# From PubChem BioAssay AID504832 (National Center for Advancing Translational Sciences (NCATS), 2011)
# In all, about 310,000 compounds went through this assay and about 18,000 (5.8%) were called active. The inconclusive results got no clear call from the source; some entries with a clear call stand among them for comparison. Calls follow the shape of the dose curve; as a rule, active = well fitted inhibition curve with a large enough effect; inconclusive = small, poorly fitted or top-dose-only effect, or another doubt; inactive = no such curve, though single readings can be large or run the other way. No potency is given beside an inconclusive call; the fits are too rough.
# Assay: Primary qHTS for delayed death inhibitors of the malarial parasite plastid, 48 hour incubation
# Conditions: P. falciparum luciferase growth in erythrocytes; series mostly up to 28.7 µM
# Procedure, shortened: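 Cell-based growth assay: transgenic P. falciparum expressing firefly luciferase, cultured in red cells within RPMI 1640 containing 0.5% w/v Albumax, 24 mM bicarbonate and gentamycin. A drop in luciferase activity indicates inhibition.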
# Potency is read from the fitted curve at half-maximal effect; tags tell the direction and shape of the fitted curve.
row,SMILES,Potency
1,CC(=O)NC1=C(N(C)C2CCS(=O)(=O)C2)C(=O)c2ccccc2C1=O (stereo unspecified),active: 13.1 µM
2,Cc1ccc2[nH]c(C)c(CCNCc3cccnc3)c2c1,"inconclusive [inhibitor, single point]"
3,COc1ccc(N2CCN(S(=O)(=O)c3c(C(=O)N4CCOCC4)c(C)n(C)c3C)CC2)cc1,inactive
4,CCO[C@@H]1OC(C(=O)N2CCOCC2)=C[C@H](c2ccc(Br)cc2)[C@H]1CCCO,"inconclusive [inhibitor, single point]"
5,CCCc1cc(O)c2c(C)cc(=O)oc2c1,"inconclusive [inhibitor, single point]"
6,CCCCN(C1CCS(=O)(=O)C1)S(=O)(=O)c1ccc(C(C)C)cc1 (stereo unspecified),"inconclusive [inhibitor, partial curve]"
7,Cc1ccccc1NC(=O)c1sc2nc(N3CCOCC3)c3c(c2c1N)CCCC3,"inconclusive [inhibitor, partial curve]"
8,Cc1ccc(SCC(=O)NC(C)c2ccccc2)cc1 (stereo unspecified),"inconclusive [inhibitor, full curve, poor fit]"
9,CC(C)C(=O)Nc1cccc(-c2csc(-c3ccccc3)n2)c1,"inconclusive [inhibitor, single point]"
10,C=CCn1c(SCc2ccc(C#N)cc2)nnc1-c1cccc(OC)c1,"inconclusive [inhibitor, partial curve]"
11,Cc1nn(Cc2ccc(F)cc2)c(C)c1NC(=O)c1cc(-c2ccco2)on1,"inconclusive [inhibitor, partial curve, poor fit]"
12,Cc1ccc(C)c(N(C)C(=O)c2cc3c(=O)[nH]c4ccc(C)cc4c3s2)c1,active: 10.4 µM
13,CC12CN(C(=O)c3ccccc3Br)CC(C)(CN(C(=O)c3ccccc3Br)C1)C2=O,"inconclusive [inhibitor, single point]"
14,CCOC(=O)c1c(NC(=O)Cn2cnc([N+](=O)[O-])n2)sc2c1CCCC2,inactive
15,CCn1c(C)c(C(=O)Nc2ccc(OC)cc2)c2cc(OC)ccc21,inactive
16,NC(=O)C1CCN(C(=O)/C=C/c2ccco2)CC1,inactive
17,O=C(N/N=C/c1ccncc1)c1cc2c(ccc3ccccc32)o1,"inconclusive [inhibitor, single point]"
18,O=C(CN1CCCCC1)NCCNc1ccc(C(F)(F)F)cc1[N+](=O)[O-],inactive
19,Cc1ccc(C2CC(=O)C(C=NCCN3CCN(C(=S)Nc4ccccc4)CC3)=C(O)C2)cc1 (stereo unspecified),inactive
20,COc1ccc(C2C(C(=O)O)CC(=O)N2C2CCCCC2)cc1 (stereo unspecified),inactive
21,CCOC(=O)c1c(C)[nH]c(C(=O)C(C)OC(=O)c2ccc(NC(=O)CC#N)cc2)c1C (stereo unspecified),active: 8.28 µM
22,N=C1C(=O)OCC1c1ccccc1NC(=O)CN1CCOCC1 (stereo unspecified),inactive
23,CC(O)CNCCOc1ccccc1-c1ccccc1 (stereo unspecified),"inconclusive [inhibitor, single point]"

row,SMILES,Potency
1,O=C(NCc1cccs1)c1ccc(Cl)c(S(=O)(=O)N2CCCC2)c1,active: 0.329 µM
2,CCN=C1NN=C(c2cc(C)n(CCc3ccccc3)c2C)CS1,"inconclusive [inhibitor, single point]"
3,CC1CC(C)CN(c2cc(N(C)CCO)c([N+](=O)[O-])c3nonc23)C1 (stereo unspecified),inactive
4,O=C(O)c1cccc(Nc2c3ccccc3nc3ccccc23)c1,"inconclusive [inhibitor, single point]"
5,CCOc1ccccc1NC(=O)Cn1c(=O)n(-c2ccc(OC)cc2OC)c(=O)c2c(C)c(C(=O)N(CC)CC)sc21,"inconclusive [inhibitor, full curve, poor fit]"
6,CC(C)(C)C1CCC2(CC1)C(C#N)=C(SCC(=O)NC1CCCCC1)NC(=O)C2C#N (stereo unspecified),"inconclusive [inhibitor, partial curve]"
7,Cc1cccc(C(C)C)c1NC(=O)COC(=O)CNS(=O)(=O)c1ccccc1,"inconclusive [inhibitor, single point]"
8,CC1(C)C2CCC1(C)C(OC(=O)CNc1ccccc1)C2 (stereo unspecified),"inconclusive [inhibitor, single point]"
9,COCCNC(=O)c1ccccc1NC(=O)c1ccccc1N(C)S(=O)(=O)c1ccc(C)cc1,"inconclusive [inhibitor, single point]"
10,Cc1c(C)c2ccc(OS(C)(=O)=O)c(C)c2oc1=O,inactive
11,CCCCCN1CC(=O)N2Cc3[nH]c4ccccc4c3C[C@H]2C1=O,"inconclusive [inhibitor, partial curve]"
12,Cc1c(C2Nc3ccccc3NC3=C2C(=O)CC(C)(C)C3)cnn1C (stereo unspecified),"inconclusive [inhibitor, single point]"
13,CC(C)(C)c1ccc(OCCCC(=O)Nc2ccc(S(N)(=O)=O)cc2)cc1,inactive
14,O=C(c1ccco1)N1N=C(c2ccncc2)CC1(O)C(F)(F)F (stereo unspecified),inactive
15,COC(=O)[C@@H]1CCCN1C(=O)CCc1nnc(CCC2CCCCC2)o1,inactive
16,Cc1ccc2c(c1)c1c3n2CCN(C(=O)CN2CCN(C)CC2)C3CCC1 (stereo unspecified),"inconclusive [inhibitor, partial curve, poor fit]"
17,O=c1cc(-c2c(F)c(F)c(F)c(F)c2F)oc2c(F)c(F)c(F)c(F)c12,"inconclusive [inhibitor, full curve, poor fit]"
18,N#Cc1ccc2c(c1)N(CCCN1CCC(O)CC1)c1ccccc1S2,"inconclusive [inhibitor, single point]"
19,O=C(Nc1ccc(F)cc1F)c1c(C(F)(F)F)ccnc1Oc1ccccc1,"inconclusive [inhibitor, single point]"
20,CN(C)c1ccc(NC(=O)Cn2c(=O)n(Cc3ccccc3)c(=O)c3ccccc32)cc1,"inconclusive [inhibitor, partial curve]"
21,CCC(C)NC(=S)Nc1ccc(C(=O)OC)cc1 (stereo unspecified),inactive
22,O=S(=O)(c1ccc(Br)c2nsnc12)N1CCOCC1,inactive
23,NC(=S)COc1ccccc1,"inconclusive [inhibitor, full curve]"
